The RNAGym collection of RNA variant scans (doi:10.7554/elife.90254)
Read counts are not given, so values of variants with three or more changes are uncertain.

B1: LINE1-mini (parent)
chain: GGCAGAGCUCAACACAGCGUGGCAAAGUGGCUGUGGCUAGACUGCC

Variants of: B1
Assay: self-cleavage, relative activity (ratio to wild type); higher = more cleavage; in vitro, sequencing; the parent is a self-cleaving ribozyme

Row | Variant | self-cleavage
1 | GGCAGAGCUCAACGCAGCGUGGCAAAGUGGCUGUGGCAAGACUGUC [A14G U38A C45U] | 0.28
2 | GGCAGAGCUCAACACAGCGUGGGUAAGCGGCUGUGGCUAGACUCCA [C23G A24U U28C G44C C46A] | 0.23
3 | GCCAGUGCUCAACACACCGUGGCAAAGUGGCAGUGGCAAGACUGCC [G2C A6U G17C U32A U38A] | 0.07
4 | GGGAGGGCUCAACACAGCGUGGCAAAGUGGCUGUGGCAAGACUGCC [C3G A6G U38A] | 0.08
5 | GGCAGAGCUCAACACAACGUCGCAAAGCGGCUGUGGCUAGACUGCC [G17A G21C U28C] | 1.18
6 | GGCAGAAGUCAUCACAGCGUGGCAAAUUGGCUGUGGCUAGACUUCC [G7A C8G A12U G27U G44U] | 0.01
7 | GGCAGAGCUCAACCCAGCUUGGCAAAGUGGAUGUGGCUAGACUGCC [A14C G19U C31A] | 0.01
8 | GGCAGAGCUGAACAGAGCGUGGCAAACUGGCAGUGGCUAGACUGCC [C10G C15G G27C U32A] | 0.02
9 | UGCACAGCUAAACACAGCCUGGCAAAGGGGCUGUGGCUAGACUGCC [G1U G5C C10A G19C U28G] | 0.01
10 | GGCUGAGCUCAACACAGCGCGGCAAAGUGACUGUGGCUAGAAUGCC [A4U U20C G30A C42A] | 0
11 | GGCAGAGCUCAACACAGCGUUGCAAAGUGGCUGUGGCUAGACCGCA [G21U U43C C46A] | 0.05
12 | GGCAGAGCUCAACACAUAGUGGCACAGUGGCUGUGGGUAGACUGCC [G17U C18A A25C C37G] | 0.02
13 | GGCAGAGCUCAACCCAGCGCGGCAAAGUGGCUGUGGCUAGACUGGC [A14C U20C C45G] | 0.01
14 | GGCAGAGCUCAACCCAGAGUGGCAAAGUGGCUGUGGCUAGACCGCC [A14C C18A U43C] | 0.02
15 | GGCCGAGCUCAACAUAGGGUGGCAAAGUGGCUGUGGCUAGACUGCC [A4C C15U C18G] | 0.06
16 | UGCAGAGCUCAACACAGCGUUGCAAAGUGGCUGUUGCUAGACGUCC [G1U G21U G35U U43G G44U] | 0.02
17 | GGCAGAGGUCAACACAGCGUGGCGAAGUGGCUGUGGCUAGAGUGCC [C8G A24G C42G] | 0.03
18 | CGCAGAGAUCAACACAGCGUGGCCAACUGGCUGUGGCUAGACUGUC [G1C C8A A24C G27C C45U] | 0.02
19 | GGCAGAGCUCAGCACAGCAUGGCAAAAUGGCUGUGGCUAGACUGCC [A12G G19A G27A] | 0.01

Row | Variant | self-cleavage
20 | GGCGGAGCUCAACGCAGCGUUGCAAAGUGGCUGUGGCUAGACUGCC [A4G A14G G21U] | 0.35
21 | GGCAGAGCUCAACACAGCGUGGCAUAGUAGCUGUGGCAUGAUUGCC [A25U G29A U38A A39U C42U] | 0.11
22 | GACAGAGCUCAACCCAGCGUGGCAAAGUGGCUUUGGCUAGACUGCA [G2A A14C G33U C46A] | 0.04
23 | GGCAGAGCUCAACACAUCGUGGCACAGGGGCUGUCGCUAGACUGCC [G17U A25C U28G G35C] | 0.07
24 | GGCAGAACUCAAAGCAGGGUGUCAAAGUGGCUGUGGCUCGACUGCG [G7A C13A A14G C18G G22U A39C C46G] | 0.51
25 | GGCAGGGCCCAACACAGCGUGGCGAAGUGGCUGUGGCUAGACUGCC [A6G U9C A24G] | 0
26 | GGCAGAGCAUAACUCAGAGUGGUAAAGUGGCUGUGGCUAGACUGCC [U9A C10U A14U C18A C23U] | 0.04
27 | GGCAGAACUCAACACAGCGUGGUAAAGUGGCUGUGGCUAGACUGCA [G7A C23U C46A] | 0.26
28 | GGCAGGGCUCAACACAGCAUGGCAAAGUGUCUGUGGCCGGACUGGC [A6G G19A G30U U38C A39G C45G] | 0.3
29 | GGCAUUGCUCAACACAGCGUGGCAAAGUGGCUGUGGUUAGACUGGC [G5U A6U C37U C45G] | 0.03
30 | GGCCGAGCUCAACACAGCGUCGCAACGUGGCUGUGGCUAGACUGCU [A4C G21C A26C C46U] | 1.37
31 | GGCAAAGCUCAACACAGCGUGGCAAAGUGGCUGUGGCUAGAUUGAC [G5A C42U C45A] | 0.07
32 | GGCAUAGCUCAACAAUGCCUCGUCAAGUGGCUGUGGUUAGACUGCC [G5U C15A A16U G19C G21C C23U A24C C37U] | 0.03
33 | GGCAGAGCUCAACACAGCGUGGGAAAGUGGCUGGGGAUAGACUGCC [C23G U34G C37A] | 0.06
34 | GGCAGAGCUCAACACAGCGUGGCAAAGUGGUUGUGGACCGACUGCA [C31U C37A U38C A39C C46A] | 0.01
35 | AGCAGAGCACAAAACAGCGUGUCAAAGUGGCUGUCGCUAGACUGCC [G1A U9A C13A G22U G35C] | 0.13
36 | GGCACAGCUCAACACAGCGGGGCAAAGUGGCUGUGACUAGACUGCC [G5C U20G G36A] | 0.03
37 | GGCAGAGAUCAACACAGCUCAGCAAAGUGGCUGUGGCUAGACUGCC [C8A G19U U20C G21A] | 0.14
38 | GGCAGAGCUAAACACAGCGUGGCAAAGUGGCUGUGAUUAGACAGCC [C10A G36A C37U U43A] | 0

Row | Variant | self-cleavage
39 | AGCAGAGCUCAACACAGCGUGGCAAAGUGGCUCUGGCUAGACAGCC [G1A G33C U43A] | 0.1
40 | GGCAGAGCUCAACACAGCGUUGCAAAGUUGCUGUGGCAAGACUGCC [G21U G29U U38A] | 0.15
41 | GGCAGAGCUCAACACAUCGCGGCGAAUUGGCUGUGGCUAGCCUGCC [G17U U20C A24G G27U A41C] | 0.06
42 | GGCAGAGCUAAGCACCGCGUGGCAAAGUGGCUAUGGCCAGACUGCC [C10A A12G A16C G33A U38C] | 0.01
43 | GGCAAAGAUCAACACAGCGCGCCAAAGUGGCUGUGGCUAGACUGCC [G5A C8A U20C G22C] | 0.15
44 | GGCAGAGCUCAACACUGCCUGGCAAAGUGGCUGUGGCUAGGCUGCC [A16U G19C A41G] | 0.13
45 | GGCAGAGCUCAACACACCGCGGCAAAGUGGCUCUGGAUAGACUGCC [G17C U20C G33C C37A] | 0
46 | GGGAGAGCUUAACACAGCGUGGCAAAGUGGCUGUGGCCAGACGGCC [C3G C10U U38C U43G] | 0.01
47 | GGCAGAGCUCAACAAUGCGUGGCAAAAUGGCUGUGGCGAGACUGCC [C15A A16U G27A U38G] | 0.03
48 | GGCAGAGCUCAUCACAGCGUGGCAAAGUAGCUGUGGCUAGACUGCA [A12U G29A C46A] | 0.83
49 | GGCACAGCUCUACACAGCGUGGCAAAGUGGCUGUGUCUAGACUGGC [G5C A11U G36U C45G] | 0.02
50 | GCCAUAGCUCAACUCAGCGUGGCAAUGUGGUUGUUGCUAGACUGCC [G2C G5U A14U A26U C31U G35U] | 0.04
51 | GGCAGCGCCUAACACAGCGUGGCAAAGUGGCUGUGGCUAGACUGCC [A6C U9C C10U] | 0.01
52 | GGCCAAGCUCAAAACAGCGUGGCAAGGUGGCCGUGGCUAGACUGCC [A4C G5A C13A A26G U32C] | 0.04
53 | GGCAGGGCCCAACACAGCGUGGCAAAGUGGCUGUGGCUAUACUGCC [A6G U9C G40U] | 0
54 | GUCAGCGCUCAUCACAGCGUGGCAAAGUGGCUGUGGCUAGACUGCC [G2U A6C A12U] | 0.04
55 | GGCAGGGCUCAACACAGUGUGUAAAAGUGGCUGUGGCUAGACUGCC [A6G C18U G22U C23A] | 0.56
56 | GGCAGAGCUCAACAGAGCGUCGCAAUGUGGCUCUGGCUAGACCGCC [C15G G21C A26U G33C U43C] | 0.03
